Test results published in the supplement of paper PMC11417369.
The list shows a part of the results.

The sequences below were run on PfAP2-HC AP2 domain (GST-tagged) (assay: gcPBM binding intensity (ln(normalized median fluorescence intensity)); higher = stronger DNA binding).
Procedure, shortened: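 The binding buffer was 1× PBS containing 1% milk, 0.2 mg/ml BSA, 0.5% salmon testes DNA and 0.03% Triton X-100. In it, GST-tagged P. falciparum DNA-binding domains expressed in E. coli were applied for 1 h to an Agilent 4 × 180k array of primer-extended double-stranded 36-bp intergenic genomic probes plus negative controls. Binding intensity, read with Alexa488 anti-GST antibody and a 488 nm scan, is the highest Masliner-normalised natural-log median intensity across replicate spots of either probe orientation.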

Row | Sequence | gcPBM binding intensity (ln)
1 | TTATATTTTAAGAAATGTACATGATATAATTATCAA [XGTACX_site8693] | 9.45
2 | TGGATGAGGACATACACACACACATAAGTTGATACA [CACACA_site3423] | 10.3
3 | TATTTCTTATGAAGGACATGCAATATTATTTATCTC [TGCATGCA_site683] | 9.52
4 | AATGAAAAGGAACATACACACCCCATATAAATATAT [CACACA_site7588] | 10.3
5 | TTTTTTTTAATTTTCTGTACAAATTTATATATACTA [XGTACX_site4251] | 9.7
6 | AAATAAAAATTACAAGCATGCATTTTCCTATTTGCA [TGCATGCA_site861] | 9.51
7 | GTGTAAAAATTAAAGTGTACACATATATATATATAT [XGTACX_site2251] | 9.7
8 | TTTCGAATTAAAGCATGTGAAAATTTTCAAAAAATA [XGTACX_negctrl_site577] | 9.51
9 | GAATCACTAATTTTTTTACACACCACAATTTAATTT [CACACA_site8311] | 10.1
10 | ACAAAACATAATTGTTGTACAAAAAGAATTATATAT [XGTACX_site8422] | 9.85
11 | ATAATAATATAATATTCACACAATTGAAATAGTGTA [CACACA_site6083] | 9.61
12 | TTTCTATAATATTCTACACACCAACAACAAACATAT [CACACA_site6409] | 10
13 | TATAAATATACAAAGGTGCATAAAAAGTTATGTTTT [GTGCAC_site9832] | 9.79
14 | AAAAAATTTTGAAATTGTACATATATAAAAAATATA [XGTACX_site2629] | 9.5
15 | TTTAAATATATTAATACACACACGATATGTACAAAA [CACACA_site539] | 9.96
16 | GAATAAATTGTATTGTGTACATATAAAAGCATCTAA [XGTACX_site8271] | 9.7
17 | AAGAAGAAACAAAACACACACAGTCTTCTTTTCTAT [CACACA_site3088] | 10.8
18 | TACAGAATTGTATATAGTACATAAAACAATATATAT [XGTACX_site7275] | 9.69
19 | GTATATGAATAATATTTTATGGTAATTTTTTTTTTT [XGTACX_negctrl_site512] | 9.4
20 | GGTGGTAAAAAACCTGCATGTCGAAATATTAAATAC [TGCATGCA_site33] | 9.64
21 | AAAAAAAAAAAAAAGAGTACTCATATAAAAATATAA [XGTACX_site6551] | 9.52
22 | TTTTTATAAAAAATTTACACTATATGACAGAAGTAA [XGTACX_negctrl_site481] | 9.31

Row | Sequence | gcPBM binding intensity (ln)
23 | AATGAAAAGTAAAATACACACACATAATATAATTTA [CACACA_site8608] | 10.6
24 | TGTGTAAAAATCATGGGTACACATTTTGATACCAAT [XGTACX_site1779] | 9.81
25 | AAACTTGACGAACACACACACACATATATAAAAAAA [CACACA_site6494] | 11.5
26 | ATACTATTTAAATGGGTGCTAAAAATAACAAAAATT | 9.57
27 | TCTTTTTATGTTCTAGAGCATTTTATTATTTAACAT [CACACA_negctrl_site1699] | 9.81
28 | ATATTTTTATATGAGGTGCATATAATGACAATTAAG | 9.64
29 | GAAGTTAGTGTTGACTGTACATATATATGTATATAT [XGTACX_site7243] | 9.78
30 | TTTTCTTTTTGTTCGTGTACACACATGAAATTTATA [XGTACX_site3301] | 9.88
31 | AAACGTACATAATACACACACATGTATACATATAAA [CACACA_site2048] | 10.2
32 | ATTTCTTTTTTTTTTTTTTTTAATGTAAAACATTTT [CACACA_negctrl_site1462] | 9.58
33 | AATCGAAATCGTGCACGGACACATGCAGTAGCCGAG [XGTACX_site6001] | 9.64
34 | TATACCTATAAATACACACACATATATAAATAAATA [CACACA_site6730] | 10.3
35 | ATATATATACACAATAGTACGTGTAATATTATTATT [XGTACX_site2151] | 9.73
36 | TTTCCGGTAATATGGAAATATATGTGGGTTTTTTTT [CACACA_negctrl_site1536] | 9.62
37 | ACTATTTTAAAAATATGTACATACGTTGTAATTTAA [XGTACX_site7999] | 9.48
38 | CGAAGGATAAACATACGTACATATATGTGTATAATA [XGTACX_site779] | 9.9
39 | TATATTTATAAATGAACACACACGCAATTTGAATCG [CACACA_site3370] | 10.2
40 | CTGTATTTATTTTTCTGTACCAAATCACCCCTTGTA [XGTACX_site395] | 9.62
41 | TACGTTTTATGACACACACACAAAAAAAAAAAAAAA [CACACA_site7764] | 9.86
42 | GATGTATAAAATAATACATGCATGTCCTACATATAT [TGCATGCA_site155] | 10
43 | TTTCTTTTTCGATATACACACTGTATGTGTCTAAAA [CACACA_site6054] | 9.95
44 | CATCACCTTTTTAAATGTACGCATAATACCAAAAAA [XGTACX_site1587] | 9.58

Row | Sequence | gcPBM binding intensity (ln)
45 | GTAGGTTACAAAATGTGAGAGAAGCAAATATAGAAA [CACACA_negctrl_site1819] | 9.74
46 | TTTTGTTTTTAGTTTATACACACCATATTAATATAA [CACACA_site3102] | 9.75
47 | TTGTATTAAAATCAAGTGCATATAATTTAAGTTCAT [GTGCAC_site9495] | 9.5
48 | CTTTGGTTATAACACACATGCACACGTAAATAAATA [TGCATGCA_site976] | 10.1
49 | TATCATATATTATAGCGTACTTATTTATTTATTTAT [XGTACX_site1676] | 9.9
50 | TATAATAGTTCATAGGTGCAATATAATAAATTTATA [GTGCAC_site9573] | 9.64
51 | AAAAAAAAAAAAAAAAGTACATGAAAAAAAGAAGAA [XGTACX_site8384] | 9.65
52 | ATATAAGTACCTATAACACACATATATTATAAGTAT [CACACA_site7281] | 9.9
53 | TAGAATAAATTAATTACACACGGAATTATATATATA [CACACA_site1616] | 9.66
54 | AATGGTTATAATATATGTACATATAAATATACTGAA [XGTACX_site8533] | 9.69
55 | TATAGCAAAATATTCACACAAACTATTAATAAAAGT [CACACA_site5795] | 9.85
56 | TTTTTTTTTTAGTATGAACACACATATATATTATAA [CACACA_site8957] | 9.68
57 | ATAAAACTTATTTAACGTACATATTTTATATACCTT [XGTACX_site5353] | 9.74
58 | TATAAAATAAATAACAAAAAAAATAAAATAAAAATA [TGCATGCA_negctrl_site297] | 9.66
59 | AAAAAATACATCAAAAGAAACATATATATATATATA [GTGCAC_negctrl_site719] | 9.59
60 | GATCATTCTAAATATAAACACACATAAATATATACA [CACACA_site9108] | 9.71
61 | ATAATATAATAATATTGTACATGGTCAAATATGAAA [XGTACX_site8390] | 9.77
62 | GTTTATATATTATAAAGTACATATGAATTTAATAAT [XGTACX_site3601] | 9.46
63 | AAAAAATAAATAAACATAAATAAATAAATAAATATA [XGTACX_negctrl_site340] | 9.73
64 | ATTTCAAAATATAGCTGTACAAAAAATGTAGATATA [XGTACX_site5843] | 9.8
65 | CTTAAAAAAATATATTGTACATATATATATACAACT [XGTACX_site1281] | 9.48
66 | TATATTCCCATATAACGTACATATGAGACACCAACT [XGTACX_site8099] | 9.53

Row | Sequence | gcPBM binding intensity (ln)
67 | TTAAAATGATTGTTACTTTTTTTTCCGTTTTCTTAA [CACACA_negctrl_site1195] | 9.49
68 | ATAAATAGTATTATATGTACACATAATATTTATAAA [XGTACX_site4751] | 9.82
69 | AAAAATGGTGTTAACACACACATATATATATATATA [CACACA_site571] | 10.2
70 | TTTCTCTCTTATAAAATACACACGAACAATCATATT [CACACA_site509] | 9.73
71 | CACATTTTTTAAATATTTTTCTACTCCATAATGTTT [CACACA_negctrl_site557] | 9.75
72 | TATAATTATGATGATAGTACGTATGAGTTCAAAACA [XGTACX_site4211] | 9.68
73 | TTAATATAGGGAAAAAAAAGAAAATCGAAAATGTGT [CACACA_negctrl_site834] | 9.57
74 | ATAGTTACACGCCAAAAAAAAAAAAAAAAAAAAAAA [CACACA_negctrl_site1133] | 9.04
75 | TAACTTCAAAAATCTTGTACATAAATATATAAAACA [XGTACX_site8574] | 9.41
76 | AATTTTGTCCTATGTTGTACTATTTTGCTCTATTTT [XGTACX_site7139] | 10
77 | TTTTTTTTTTAGAGTACACACTTTTTTACATTTATG [CACACA_site5990] | 9.7
78 | TCTTGATCTTATATATATCTACAATATTTTATACAT [TGCATGCA_negctrl_site569] | 10.2
79 | ATTACAAATATAATATGTACTTAAATATAATTAAAA [XGTACX_site7038] | 9.52
80 | ATTACTAAAACAAAATGTACATATGATTTAAGAAAA [XGTACX_site5992] | 9.66
81 | CAAAAAAAATTATACACACACACACCCATATATATA [CACACA_site1044] | 10.6
82 | AAGAAAATTAACCCATGTACTTATGTAGATAGCAAG [XGTACX_site1049] | 9.87
83 | TACTATATATTATATAGTACATAAGATATACAACAT [XGTACX_site2929] | 9.69
84 | TAAAACTTAATATAAACACACAAAAATTAATAAATA [CACACA_site4370] | 9.87
85 | CAATATTATAGATATACACACATAATGTGTAAAAAC [CACACA_site6631] | 9.96
86 | ATATATATATATATTGCACACATATAAATATATATA [CACACA_site8167] | 9.69
87 | GAAAAATTTAATTATTGTACGTTTCATCTATATTTA [XGTACX_site414] | 9.7
88 | TTTTTGTTTTTTTTGTGTACTTATCAAATATATATA [XGTACX_site7273] | 9.82
